For this series, the system named is ATP. The experiment in a line: switch fluorescence ratio, 500 uM ATP over buffer (Cy3 cluster intensity, sum of 5 cycles each) (fold (ratio)); higher = stronger signal-on switching upon ATP binding; sequences stand for … in TCGTCGGCAGCGTCAGATGTGTATAAGAGACAGTTTTTTTTTTTTTTTTTTTTTTTTT…TC. The note with it: aptamer strand: ATP DNA aptamer (quencher-CACCTGGGGGAGTATTGCGGAGGAAGG + anchor), 100 nM annealed; ATP concentration: 500 uM; one replicate. Summed up:
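Clusters carrying Cy3-labelled switching strands on a modified Illumina MiSeq flow-cell were annealed to 100 nM quencher-labelled ATP aptamer and imaged in selection buffer. They were imaged again after 15 min with 500 uM ATP at 22 °C, over five buffer/ATP cycles with NaOH stripping and re-annealing in between. For each cluster, the fluorescence ratio is the summed Cy3 intensity of the target cycles divided by that of the buffer cycles, averaged per switch-domain sequence. Clusters outside 100-1000 RFU were left out.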

Sequences with one replicate were seen in a single cluster, so their values are uncertain.
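Also: ATP exposure 15 min at 22 °C before imaging.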

AAACGCAGTA: the switch fluorescence ratio is 1.02.

For GCTTTAAAGA, the switch fluorescence ratio was found to be 0.964.

In the case of CCACGTTTAG, the switch fluorescence ratio came out at 0.991.

Consider ATTTAATGG, for which the switch fluorescence ratio worked out at 1.02.

As to AGTTAACAGG, the switch fluorescence ratio was 0.967.

As for GCCGTTCAGG, the switch fluorescence ratio is 1.01.

For GCTAATCTTA, the switch fluorescence ratio is 1.05.

GACCAAACGT: the switch fluorescence ratio was 1.44.

In the case of CGTGTGGAAG, the switch fluorescence ratio is 1.

For CAATTCGGTT, the switch fluorescence ratio came to 0.975.

On to GGGTGTTAAA, for which the switch fluorescence ratio amounted to 0.953.

As to TCGCTGGAA, the switch fluorescence ratio came to 1.04.

For the sequence CATGCCGGGG, the switch fluorescence ratio turned out to be 1.05.

With TTAGGGATT, the switch fluorescence ratio was 0.994.

Turning to CCAGAGGTGG, the switch fluorescence ratio is 0.998.

For the sequence CGTTACCGCG, the switch fluorescence ratio was 1.03.

Consider TATTAAGAGT, for which the switch fluorescence ratio turned out to be 1.05.

As for GCGGAGGGCT, the switch fluorescence ratio was 1.01.

Consider CCCGATCCTC, for which the switch fluorescence ratio is 1.23.

Take AAAGGAAAGC: the switch fluorescence ratio was found to be 1.05.

In the case of CTCAGGGAG, the switch fluorescence ratio was found to be 1.

For the sequence TCCAACTCTT, the switch fluorescence ratio came out at 0.956.

Consider TACCACTTTT, for which the switch fluorescence ratio worked out at 0.985.

Regarding AATCAATGCG, the switch fluorescence ratio came out at 1.02.

GGAATTACGT: the switch fluorescence ratio worked out at 0.997.

Turning to GGTTGAGCAA, the switch fluorescence ratio turned out to be 1.37.

Regarding CAAAGCGCGA, the switch fluorescence ratio is 1.07.

As for AAGAAACACT, the switch fluorescence ratio was determined as 1.09.

Take ATACACCCGG: the switch fluorescence ratio is 1.27.

As for TCGATATCAT, the switch fluorescence ratio was 1.01.

With TCTCGAAATC, the switch fluorescence ratio turned out to be 1.05.

With AACTAGATGC, the switch fluorescence ratio was 1.03.

TGTTTTCTG: the switch fluorescence ratio is 0.936.

Consider CTCGAATGCT, for which the switch fluorescence ratio was 1.08.

For GGGCGTGCTG, the switch fluorescence ratio is 0.947.

As for AGCTTATAAA, the switch fluorescence ratio was 1.04.

As for GTTATTTGGC, the switch fluorescence ratio was 1.01.

Turning to TCGCACCTGA, the switch fluorescence ratio worked out at 1.07.

ATTTATGATT: the switch fluorescence ratio came to 0.976.

As for TTAATGCGCC, the switch fluorescence ratio was 1.03.

Regarding ATTCTGAGG, the switch fluorescence ratio turned out to be 0.976.

ACACCTGAGC: the switch fluorescence ratio is 1.11.

Consider ACTAGGGTAC, for which the switch fluorescence ratio amounted to 1.05.

On to AGAGTGTACT, for which the switch fluorescence ratio worked out at 0.999.

In the case of GTCAACGTCG, the switch fluorescence ratio turned out to be 0.971.

As for TGAAGTTCTA, the switch fluorescence ratio worked out at 1.02.

For the sequence CCGATAATC, the switch fluorescence ratio is 3.21.

For the sequence CCGTCTATGT, the switch fluorescence ratio stood at 1.09.

For the sequence AAATTAGAGA, the switch fluorescence ratio is 0.991.

Consider CTTTCACGTG, for which the switch fluorescence ratio is 1.01.

With TGCATGAACT, the switch fluorescence ratio was 1.05.

AGCGCAGATA: the switch fluorescence ratio came out at 1.01.

For the sequence AACGAGTTTT, the switch fluorescence ratio came to 1.02.

GTTTACGCTA: the switch fluorescence ratio came to 1.29.

Consider TCCTGGAGAA, for which the switch fluorescence ratio was found to be 1.06.

Turning to TGTAATCTCG, the switch fluorescence ratio amounted to 1.01.

On to ACATGAGAAT, for which the switch fluorescence ratio came to 0.987.

Consider GATTGGGAGT, for which the switch fluorescence ratio is 1.

For the sequence ACTTTGCACT, the switch fluorescence ratio came to 1.23.

In the case of GGTCAAGTAC, the switch fluorescence ratio was 1.17.

On to GGTGTAAAGA, for which the switch fluorescence ratio amounted to 0.987.

On to CGATCTGGAG, for which the switch fluorescence ratio worked out at 0.97.

For TTAATCCGT, the switch fluorescence ratio was found to be 1.07.

Regarding GGAAGCCTAG, the switch fluorescence ratio amounted to 0.977.

Take TACTTTGAAT: the switch fluorescence ratio came to 0.972.

On to ATAACGGCCC, for which the switch fluorescence ratio is 1.06.

For the sequence CTTTTGGCCC, the switch fluorescence ratio was determined as 1.04.

Turning to TACTCTAGA, the switch fluorescence ratio stood at 1.13.

Turning to CGCTCATCGT, the switch fluorescence ratio came to 1.01.

Take GGTGACTACG: the switch fluorescence ratio worked out at 1.01.

ATGAGAACCT: the switch fluorescence ratio was determined as 1.87.

Regarding GCCTCCATCG, the switch fluorescence ratio was found to be 1.13.

For TAACTAATAC, the switch fluorescence ratio was 1.32.

For the sequence TGCTATACGT, the switch fluorescence ratio was 1.24.

As for GAGAAGGTGC, the switch fluorescence ratio came to 1.19.

Regarding GGGCCAGCG, the switch fluorescence ratio came out at 1.05.

ACCCATAATT: the switch fluorescence ratio turned out to be 1.01.

Turning to CGCACATTGG, the switch fluorescence ratio is 1.09.

In the case of TCGTTTTCTG, the switch fluorescence ratio amounted to 1.02.

In the case of TGTGTAACCG, the switch fluorescence ratio was found to be 0.989.

Regarding TTTGCCACAA, the switch fluorescence ratio stood at 1.97.

Turning to GTGGGTATGC, the switch fluorescence ratio turned out to be 1.02.

As to TTATTCTTAA, the switch fluorescence ratio amounted to 1.01.

For the sequence TAATGGCTAA, the switch fluorescence ratio worked out at 1.32.

Regarding TCTTCAAAGG, the switch fluorescence ratio came to 1.04.

For GCAATCGGTG, the switch fluorescence ratio is 1.34.

TTTTATGGTC: the switch fluorescence ratio was 1.01.

In the case of CGTTGCGCCC, the switch fluorescence ratio stood at 1.03.

ATGTCGAAAT: the switch fluorescence ratio came to 1.

On to CCATGTCCG, for which the switch fluorescence ratio stood at 0.994.

Turning to ATTTGCTATC, the switch fluorescence ratio turned out to be 1.07.

As to GCAGTCATG, the switch fluorescence ratio was 0.983.

Take CGGAAGGCTG: the switch fluorescence ratio came out at 0.954.

CAGACCCAAC: the switch fluorescence ratio was found to be 1.16.

CTCTCGGGAT: the switch fluorescence ratio is 1.19.

Take GGCCAGTTGT: the switch fluorescence ratio worked out at 1.04.

TGAATGCTCT: the switch fluorescence ratio is 1.03.

As for AGCAAGAACT, the switch fluorescence ratio stood at 1.52.

As for AGTGGTGCAG, the switch fluorescence ratio was determined as 1.05.

For the sequence ATGACTCCGG, the switch fluorescence ratio is 1.11.

As to GGCGCATGGT, the switch fluorescence ratio stood at 1.02.

With ATCTACGAAT, the switch fluorescence ratio was 1.09.

TAAACCTTAT: the switch fluorescence ratio was found to be 1.48.

Consider AGGGAGGCAT, for which the switch fluorescence ratio worked out at 1.06.

For the sequence TATTACGACG, the switch fluorescence ratio is 1.12.

On to CCATTAGGGA, for which the switch fluorescence ratio came out at 1.02.

Take GGTCTGACAC: the switch fluorescence ratio was found to be 0.966.

For TTAGAGTAAG, the switch fluorescence ratio came to 0.997.

GTCGCGCTCA: the switch fluorescence ratio is 0.954.

With GCAGTCATGC, the switch fluorescence ratio was found to be 0.97.

For the sequence GACACTGCAA, the switch fluorescence ratio came to 3.98.

For ATTCGGATAG, the switch fluorescence ratio amounted to 1.07.

ATTTTCCGTT: the switch fluorescence ratio was determined as 1.01.

Consider ACGGATTTCA, for which the switch fluorescence ratio is 1.03.

Take ATCTTTGAAC: the switch fluorescence ratio was determined as 1.02.

Take AACAGTGTGG: the switch fluorescence ratio was 0.984.

Take GAACTGGTCT: the switch fluorescence ratio worked out at 1.01.

Take GTGTGGAAAA: the switch fluorescence ratio was determined as 1.04.

Consider ACTCGGGGTC, for which the switch fluorescence ratio is 0.975.

As to ATGCAACCTG, the switch fluorescence ratio stood at 1.05.

For the origin of these results see the supplement of paper PMC10126150.
